{"source": "patent US20200347136A1", "about": "“CONSTRAINED CYCLIC PEPTIDES AS INHIBITORS OF THE CD2:CD58 PROTEIN-PROTEIN INTERACTION FOR TREATMENT OF DISEASES AND AUTOIMMUNE DISORDERS” (Board of Supervisors for the University of Louisiana System, priority 2019, published 2020)", "system": "A549 Red-FLuc lung tumors", "assay": "experimental metastasis model of lung cancer, A549 Red-FLuc cells", "conditions": "6 mg/kg i.v. twice a week, vs vehicle"}
{"molecule": "CC[C@H](C)[C@@H]1NC(=O)[C@H](CCCNC(=N)N)NC(=O)C[C@@H](c2cccc3ccccc23)NC(=O)[C@@H]2CSSC[C@H](NC(=O)C[C@@H](c3cccc4ccccc34)NC(=O)[C@H](CCCNC(=N)N)NC(=O)[C@@H]3CCCN3C(=O)[C@@H]3CCCN3C1=O)C(=O)N[C@@H](Cc1ccccc1)C(=O)N1CCC[C@H]1C(=O)N[C@@H](CC(=O)O)C(=O)N[C@@H](CC(=O)O)C(=O)N[C@@H](Cc1ccccc1)C(=O)N2", "note": "[SFTI-G5, Cyclo(C(S-X)RIPPR(S-X)CFPDDF)]", "values": [{"measurement": "rate of tumor growth, total flux (p/s)", "value": "tumor growth was reduced compared to the control group"}]}
